Results from patent US20250223366A1, “MONOCLONAL ANTIBODIES AND BISPECIFIC ANTIBODY AGAINST C-MET” (BIOTHEUS INC., priority 2022, published 2025).

Target: T1, EGFR which expressed on H292 cells (Homo sapiens, UniProt P00533)
T1 construct: H292 cells, which were human non-small cell lung cancer cells purchased from Procell, were capable of expressing EGFR and c-Met receptors; host or cells: H292 cells
Test: Blocking EGF-EGFR interaction on H292 cells (flow cytometry, Biotin-h.EGF)
Type: cell-based
Settings: negative controls, FIG. 3
Procedure: H292 cells, which were human non-small cell lung cancer cells purchased from Procell, were capable of expressing EGFR and c-Met receptors. H292 cells were expanded to a suitable density, digested and detached from the cell culture flask, resuspended to 1×10^6 cells/ml, added to a 96-well flow plate, 100 μL per well, and centrifuged for later use. The antibody to be tested was subjected to 3-fold dilution with PBS, starting from 200 nM, and the diluted sample was added to the 96-well flow plate with cells, 100 μL/well, and incubated at 25° C. for 60 min. Biotin-h.EGF was diluted to 100 nM with PBS, added to the 96-well flow plate with cells, 100 μL/well, and incubated at 25° C. for 60 min. then washed twice with PBS. Streptavidin-FITC (purchased from Jackson) was diluted 100 times with PBS and added to the plate, 100 µL/well, incubated at 4° C. for 30 min, and washed twice with PBS. 100 μL/well of PBS was added to resuspend the cells, then the cells were detected on a CytoFlex (Beckman) flow cytometer, and the corresponding MFI was calculated.

B1: 136 single-arm antibody: single Fab antibody; heavy chain SEQ ID NO: 44 (LALA, knob), light chain SEQ ID NO: 12, Fc-LALA-hole (antibody)
heavy: EVQLQESGPGLVKPSETLSLTCTVSGGSVTSVNYYWKWIRQPPGKGLEWIGYISYSGNTNYNPSLKSRVTISVDTSKNQFSLKLSSVTAADTAVYYCVRAPYYYMDVWSKGTTVTVSSASTKGPSVFPLAPSSKSTSGGTAALGCLVKDYFPEPVTVSWNSGALTSGVHTFPAVLQSSGLYSLSSVVTVPSSSLGTQTYICNVNHKPSNTKVDKKV[skipping human IgG1 Fc with changes]
light: DIVMTQSPSSVSASVGDRVTITCRASQGISSWLAWYQQKPGKAPKLLIYAVSSLQSGVPSRFSGSGSGTDFTLTISSLQPEDFATYFCQQANSFPLTFGGGTKVEIKRTVAAPSVFIFPPSDEQLKSGTASVVCLLNNFYPREAKVQWKVDNALQSGNSQESVTEQDSKDSTYSLSSTLTLSKADYEKHKVYACEVTHQGLSSPVTKSFNRGEC
modifications: Fc-LALA-hole chain lacks entry
  blocking interaction between EGF and EGFR: could not block
